# Reference: PubChem BioAssay AID588342 (National Center for Advancing Translational Sciences (NCATS), 2011)
# “And” between values parts separate entries of the source, which are not always exact repeats. Equal entries are not always repeated. Screen size: about 360,000 compounds; about 25,000 (6.9%) were called active. This list was built around the results that the source calls inconclusive (neither active nor inactive); the mix of calls is not that of the screen. The call rests on the fitted dose curve; in most records, active means well fitted inhibition curve with a large enough effect; inconclusive means small, poorly fitted or top-dose-only effect; inactive means flat fitted curve, though single readings scatter. A potency beside an inconclusive call is a rough fit, not a confirmed value.
# Biological target: Luciferin 4-monooxygenase (Photinus pyralis) (UniProt P08659)
# Chain of UniProt P08659 (P08659 whole entry, looked up): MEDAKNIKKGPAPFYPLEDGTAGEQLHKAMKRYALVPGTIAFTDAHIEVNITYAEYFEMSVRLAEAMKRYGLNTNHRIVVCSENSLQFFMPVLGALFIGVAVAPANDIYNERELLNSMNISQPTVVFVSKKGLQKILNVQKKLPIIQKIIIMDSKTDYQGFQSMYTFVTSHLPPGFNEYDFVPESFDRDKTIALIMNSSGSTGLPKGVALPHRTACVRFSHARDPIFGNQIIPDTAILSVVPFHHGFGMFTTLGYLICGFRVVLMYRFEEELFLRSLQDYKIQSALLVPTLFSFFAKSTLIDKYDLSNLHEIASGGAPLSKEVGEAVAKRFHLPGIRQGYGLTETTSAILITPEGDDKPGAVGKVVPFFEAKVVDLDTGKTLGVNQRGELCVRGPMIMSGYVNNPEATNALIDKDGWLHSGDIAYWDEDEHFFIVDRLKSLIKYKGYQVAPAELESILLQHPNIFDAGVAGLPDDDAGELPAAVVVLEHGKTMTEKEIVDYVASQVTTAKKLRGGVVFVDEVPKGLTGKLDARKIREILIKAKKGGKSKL
# Test: qHTS profiling assay for firefly luciferase inhibitor/activator using purifed enzyme and Km concentrations of substrates (counterscreen for miR-21 project); further: nearly all actives have a fitted effect of over 55% in size;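 on activity change, negative = inhibition: plate controls were vehicle for no effect and reference inhibitor for full effect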
# Settings: purified FLuc, luminescence inhibition; activity change, negative = inhibition: at 57.5 µM (top of the series)
# Procedure, shortened: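 Purified P. pyralis luciferase, 10 nM final, with Km-level 10 uM D-luciferin and 10 uM ATP in 50 mM Tris acetate pH 7.5, 10 mM Mg acetate, 0.01% Tween-20, 0.05% BSA; 6-point qHTS titration about 60 µM downward; luminescence read.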
# Potency means the concentration at half of the fitted maximal effect; tags describe the fitted curve by direction and shape.
Compound,Potency,"activity change, negative = inhibition"
COC(=O)c1c(-c2ccc(C(C)(C)C)cc2)csc1NC(=O)C1C2CCC(O2)C1C(=O)O (stereo unspecified),"inconclusive: 21.3 µM [inhibitor, partial curve, poor fit]",–
c1cc2c(cc1-c1cnc3n1CCC3)OCCO2,"inconclusive: 26.9 µM [inhibitor, single point]",–
Cn1c(CN2CCCCC2)nc2cc(NC(=O)c3ccc(Cl)cc3)ccc21,"inconclusive: 21.3 µM [inhibitor, single point] and inconclusive: 26.9 µM [inhibitor, partial curve, poor fit]",–
Cc1ccc(S(=O)(=O)N(C)C)cc1NC(=O)c1ccc2ccccc2n1,"inconclusive: 26.9 µM [inhibitor, single point]",–
CCCCOC(=O)c1ccc(OC(=O)N2CCOCC2)cc1,"inconclusive: 26.9 µM [inhibitor, partial curve, poor fit]",–
O=C(NCc1n[nH]c(=O)c2ccccc12)C1CC(=O)N(c2ccc(Cl)cc2)C1 (stereo unspecified),–,inactive: -6.2%
Cc1cccc(-n2c(=O)c3c4c(sc3n3c(=S)[nH]nc23)CCC4)c1,"inconclusive: 26.9 µM [inhibitor, partial curve, poor fit]",–
Nc1nc(N2CCCCC2)nc2ccccc12,"inconclusive: 19 µM [inhibitor, partial curve]",–
COc1cc2ccccc2cc1C(=O)Nc1ccccc1C,active: 8.49 µM,–
CCN(CC)S(=O)(=O)c1cccc(C(=O)Nc2nnc(C)s2)c1,"inconclusive: 26.9 µM [inhibitor, partial curve]",–
CCOC(=O)N1CCC(Nc2nc3ccccc3nc2NS(=O)(=O)c2ccc(Cl)cc2)CC1,"inconclusive: 3.79 µM [inhibitor, full curve]",–
Cc1ccc(S(=O)(=O)c2cn(C)c3cc(N4CCN(C)CC4)c(F)cc3c2=O)c(C)c1,–,inactive: 0.406%
CC1(C)CNc2cc(N)ccc2S1,"inconclusive: 23.9 µM [inhibitor, partial curve, poor fit]",–
CCc1cc(CN2CCOCC2)c(NC(=O)c2ccccc2)s1,"inconclusive: 30.1 µM [inhibitor, partial curve, poor fit]",–
O=C1C2C3C=CC(CO)(O3)C2C(=O)N1c1ccccc1-c1ccccc1 (stereo unspecified),"inconclusive: 9.53 µM [inhibitor, partial curve]",–
COc1cc(-c2nc(C)c(C(C)=O)n2O)ccc1OCC(=O)Nc1ccc(F)cc1,"inconclusive: 13.5 µM [inhibitor, partial curve, poor fit]",–
COc1ccc(-c2cc(C(=O)Nc3cc(OC)cc(C(=O)Nc4cccc(C(F)(F)F)c4)c3)[nH]n2)cc1,"inconclusive: 8.49 µM [inhibitor, partial curve]",–
CCc1ccccc1NC(=O)c1ccc(-c2csc(C)n2)cc1,"inconclusive: 2.69 µM [inhibitor, full curve]",–
COc1ccc(C(=O)NNC(=O)CSc2nnc(C)n2C)cc1,–,inactive: -0.844%
O=C(O)c1cccc(CSc2ncn[nH]2)c1,active: 19 µM,–
O=C(c1ccc(Cl)cc1)c1ccc(OCC(=O)N2CCOCC2)cc1,–,inactive: -5.24%
Cc1nc2c(oc3ccc(Cl)cc32)c(=O)[nH]1,"inconclusive: 26.9 µM [inhibitor, partial curve, poor fit]",–
CCCn1c(C)cc(C(=O)COC(=O)c2nccnc2N)c1C,active: 3.38 µM,–
Cc1ccc(-c2nnc(N(C)C(=O)c3ccccn3)s2)cn1,"inconclusive: 30.1 µM [inhibitor, single point]",–

Compound,Potency,"activity change, negative = inhibition"
Cc1ccc(C)c(S(=O)(=O)N2CCN(C(=O)c3ccncc3)CC2)c1,–,inactive: 3.05%
CCCNC(=O)Cn1nc(C)c2c(C)n(-c3ccccc3)nc2c1=O,–,inactive: -3.78%
CCc1ccc(Nc2ccc(C(=O)O)cc2[N+](=O)[O-])cc1,"inconclusive: 23.9 µM [inhibitor, partial curve, poor fit]",–
c1ccc(Cn2cc(-c3cccnc3)cn2)cc1,"inconclusive: 7.57 µM [inhibitor, partial curve, poor fit]",–
CCCCSc1cc(C)nc(N)n1,"inconclusive: 33.8 µM [inhibitor, single point]",–
CC(=O)Nc1cccc(NC(=O)COc2ccc3c(c2)CCC3)c1,active: 8.49 µM,–
Cc1nnc2n1N=C(c1ccc3c(c1)NC(=O)CO3)CS2,–,inactive: -2.33%
Cc1ccc(-n2ncc3c(NCc4ccccc4)ncnc32)cc1C,active: 21.3 µM,–
COc1ccc(/C=C(/C(=O)Nc2ccccc2C(=O)N2CCCC2)c2ccccc2)cc1,–,inactive: 0.376%
CCN(CC)c1ccc(C=C2C(=O)OC3(CCCCC3)OC2=O)cc1,"inconclusive: 21.3 µM [inhibitor, partial curve]",–
COc1ccc(-n2cc(CN(C)C(C)c3ccncn3)c(-c3cccc(F)c3)n2)cc1 (stereo unspecified),"inconclusive: 26.9 µM [inhibitor, single point]",–
CCC(=O)Nc1cccc(NC(=S)NC(=O)c2ccccc2Cl)c1,"inconclusive: 16.9 µM [inhibitor, partial curve]",–
O=C(CSc1oc(-c2ccco2)nc1S(=O)(=O)c1ccc(Br)cc1)c1ccc(Cl)cc1,–,inactive: 0.324%
COc1cccc(-c2csc(N3CCN(C(=O)Nc4ccc(F)cc4)CC3)n2)c1,"inconclusive: 37.9 µM [inhibitor, single point]",–
Cc1cccc(CN2CCN(Cc3nc4c(s3)CCCC4)CC2CCO)n1 (stereo unspecified),–,inactive: -2.13%
COc1ccc2c(c1)C(=O)/C(=C/C=C/c1ccccc1)CC2,active: 9.53 µM,–
Clc1ccc(-c2csc(N3CCSCC3)n2)cc1,active: 12 µM,–
COc1cccc(/C=C2\Oc3cc(OCC(=O)N4CCCC4)ccc3C2=O)c1OC,active: 9.53 µM,–
COc1cccc(/C=C(/CC(=O)Nc2ccc(N3CCOCC3)cc2)c2nc3ccccc3s2)c1,"inconclusive: 19 µM [inhibitor, partial curve]",–
Cc1ccc(Cc2c[nH]c(=S)s2)cc1,"inconclusive: 19 µM [inhibitor, partial curve, poor fit]",–
COC(=O)C1CCN(c2csc3ccc(C)cc3c2=O)CC1,active: 6.01 µM,–
CCN(CCCNC(=O)c1ccc(Sc2ccc(Cl)cc2)c(NC(C)=O)c1)c1cccc(C)c1,"inconclusive: 7.57 µM [inhibitor, partial curve, poor fit]",–
CC(=O)NCCC(=O)Nc1nc(C)c(Cc2ccc3c(c2)OCO3)s1,–,inactive: -13.8%
COc1ccc(/C=C/C(=O)NC(=S)NNC(=O)c2cc(OC)c(OC)c(OC)c2)cc1,"inconclusive: 7.57 µM [inhibitor, partial curve]",–

Compound,Potency,"activity change, negative = inhibition"
O=c1cc(O)c2ccccc2n1Cc1ccccc1Cl,"inconclusive: 23.9 µM [inhibitor, partial curve, poor fit]",–
Cc1ccc(NC(=O)c2ccc3c(=O)n4c(nc3c2)CCCCC4)cc1F,"inconclusive: 19 µM [inhibitor, single point]",–
CCc1ccc(NC(=O)/C(C#N)=C/c2cn(CC(=O)O)c3ccccc23)cc1,"inconclusive: 23.9 µM [inhibitor, single point]",–
CCN(CC)c1ccc(-c2nc(-c3ccccn3)no2)cc1[N+](=O)[O-],"inconclusive: 21.3 µM [inhibitor, partial curve]",–
CN1c2ccccc2-c2nc(SCC(=O)Nc3ccccc3)ncc2S1(=O)=O,–,inactive: -10.1%
CCCCCc1n[nH]c2c1CCCC2,–,inactive: -15.5%
CSc1cccc(NC(=O)c2ccc3c(c2)CCCN3S(C)(=O)=O)c1,active: 12 µM,–
N#Cc1cc2c(nc1SCc1ccncc1)CCC2,"inconclusive: 19 µM [inhibitor, partial curve]",–
CSc1nccc(N/N=C/c2ccccc2)n1,active: 2.69 µM,–
O=C(NC1CCCCC1)C(=S)N1CCCC1,–,inactive: -0.956%
O=C(NCCC1=CCCCC1)c1cnccn1,"inconclusive: 19 µM [inhibitor, single point]",–
COc1ccc(/C=C2\SC(=O)N(CC(=O)NNC(=O)c3ccccc3O)C2=O)cc1,"inconclusive: 37.9 µM [inhibitor, partial curve, poor fit]",–
CCOC(=O)CSc1snnc1-c1ccccc1,"inconclusive: 30.1 µM [inhibitor, partial curve, poor fit]",–
Cc1cc(C)c2nc(N)sc2c1,"inconclusive: 21.3 µM [inhibitor, single point]",–
c1ccc(Nc2ncnc3c2oc2ccccc23)cc1,active: 21.3 µM,–
CCOc1cc2[nH]c(=O)n(CCCN3CCN(c4ccc(OC)cc4)CC3)c(=O)c2cc1OCC,"inconclusive: 23.9 µM [inhibitor, partial curve, poor fit]",–
CC1CCCCC1NC(=O)/C=C/c1nc2ccccc2s1 (stereo unspecified),"inconclusive: 26.9 µM [inhibitor, partial curve]",–
N#Cc1ccccc1COc1ccc(/C=C/C(=O)O)cc1,active: 2.39 µM,–
O=C1NC(=S)N(C(=O)c2ccc(F)cc2)/C1=C/c1ccccc1,"inconclusive: 33.8 µM [inhibitor, single point]",–
CCSc1nnc(NC(=O)c2cccc(OCc3c(C)noc3C)c2)s1,"inconclusive: 23.9 µM [inhibitor, partial curve, poor fit]",–
O=C(c1ccc2nc[nH]c2c1)N1CCN(c2cccc(Cl)c2)CC1,–,inactive: 0.0758%
COc1ccc(C(=O)Nc2ncc3c(n2)CC(c2ccco2)CC3=O)cc1 (stereo unspecified),"inconclusive: 23.9 µM [inhibitor, partial curve, poor fit]",–
CCc1ccc2occ(CC(=O)NCc3ccccc3)c2c1,"inconclusive: 26.9 µM [inhibitor, partial curve, poor fit]",–
